Test results published in the supplement of paper PMC12217912.
This is one part of the list. The full chains were built here from the parent and the listed change. Inactive controls read about 0.05.

B1: TEV protease; numbered along this chain (parent)
chain: MGESLFKGPRDYNPISSSICHLTNESDGHTTSLYGIGFGPFIITNKHLFRRNNGTLVVQSLHGVFKVKDTTTLQQHLVDGRDMIIIRMPKDFPPFPQKLKFREPQREERICLVTTNFQTKSMSSMVSDTSCTFPSGDGIFWKHWIQTKDGQCGSPLVSTRDGFIVGIHSASNFTNTNNYFTSVPKNFMELLTNQEAQQWVSGWRLNADSVLWGGHKVFMVKPEEPFQPVKEATQL

Variants of: B1
Test: raw area under fraction-flipped curve 0-4 h after induction (AUC4h, not background-subtracted), DNA-recorder readout of cleavage of the substrate (dimensionless); higher = more cleavage of the substrate by the protease variant
Details: temperature: 34 °C; time window: 0-4 h after rhamnose induction
Experimental: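 In vivo DNA recorder in E. coli TOP10(DE3) ΔrhaA at 34 °C. Each TEVp single-site mutant (parent TEVp 0) is paired with a single-site variant of the 7-mer TEVs (canonical ENLYFQ|S). The substrate sits between flexible linkers in a Bxb1-sfGFP-TEVs-SsrA fusion, so cleavage stabilises Bxb1 and speeds flipping of a recombination array, read by NGS. The value is the raw area under the fraction-flipped curve over 0-4 h after rhamnose induction (AUC4h), with ≥20 reads per time point. It is not background-subtracted; inactive controls average about 0.047.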
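Further: Bxb1 expression induced with 0.2% (w/v) L-rhamnose at OD600 near 0.5, cultures sampled hourly, flipped fraction per protease–substrate barcode pair counted by paired-end Illumina sequencing.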

Variant | area with substrate EALYFQS | area with substrate ECLYFQS | area with substrate EDLYFQS | area with substrate EHLYFQS | area with substrate EILYFQS | area with substrate ELLYFQS | area with substrate EMLYFQS | area with substrate EPLYFQS | area with substrate EQLYFQS | area with substrate ERLYFQS | area with substrate EVLYFQS | area with substrate EWLYFQS | area with substrate EELYFQS | area with substrate EKLYFQS | area with substrate ESLYFQS | area with substrate ETLYFQS | area with substrate EFLYFQS | area with substrate EYLYFQS | area with substrate EGLYFQS
MGESLFKGPRDYNPISSSICHLTNESDGHTTSLYGIGFGPFIITNKHLFVRNNGTLVVQSLHGVFKVKDTTTLQQHLVDGRDMIIIRMPKDFPPFPQKLKFREPQREERICLVTTNFQTKSMSSMVSDTSCTFPSGDGIFWKHWIQTKDGQCGSPLVSTRDGFIVGIHSASNFTNTNNYFTSVPKNFMELLTNQEAQQWVSGWRLNADSVLWGGHKVFMVKPEEPFQPVKEATQL [R50V] | 0.184 | 0.148 | 0.143 | 0.217 | 0.124 | 0.127 | 0.176 | 0.159 | 0.162 | 0.136 | 0.121 | 0.131 | – | – | – | – | – | – | –
MGESLFKGPRDYNPISSSICHLTNESDGHTTSLYGIGFGPFIITNKHLFQRNNGTLVVQSLHGVFKVKDTTTLQQHLVDGRDMIIIRMPKDFPPFPQKLKFREPQREERICLVTTNFQTKSMSSMVSDTSCTFPSGDGIFWKHWIQTKDGQCGSPLVSTRDGFIVGIHSASNFTNTNNYFTSVPKNFMELLTNQEAQQWVSGWRLNADSVLWGGHKVFMVKPEEPFQPVKEATQL [R50Q] | 0.132 | 0.0869 | 0.129 | 0.13 | 0.0991 | – | – | – | – | 0.154 | 0.114 | 0.135 | 0.147 | 0.101 | 0.0959 | 0.137 | – | – | –
MGESLFKGPRDYNPISSSICHLTNESDGHTTSLYGIGFGPFIITNDHLFRRNNGTLVVQSLHGVFKVKDTTTLQQHLVDGRDMIIIRMPKDFPPFPQKLKFREPQREERICLVTTNFQTKSMSSMVSDTSCTFPSGDGIFWKHWIQTKDGQCGSPLVSTRDGFIVGIHSASNFTNTNNYFTSVPKNFMELLTNQEAQQWVSGWRLNADSVLWGGHKVFMVKPEEPFQPVKEATQL [K46D] | 0.0452 | 0.0517 | 0.0597 | – | – | 0.0394 | 0.0506 | 0.0542 | – | 0.0806 | 0.0599 | 0.042 | 0.0558 | 0.0491 | 0.0558 | 0.0623 | 0.0676 | – | –
MGESLFKGPRDYNPISSSICHLTNESDGHTTSLYGIGFGPFIITNKHLFRRNNGHLVVQSLHGVFKVKDTTTLQQHLVDGRDMIIIRMPKDFPPFPQKLKFREPQREERICLVTTNFQTKSMSSMVSDTSCTFPSGDGIFWKHWIQTKDGQCGSPLVSTRDGFIVGIHSASNFTNTNNYFTSVPKNFMELLTNQEAQQWVSGWRLNADSVLWGGHKVFMVKPEEPFQPVKEATQL [T55H] | 0.12 | 0.12 | 0.14 | – | 0.105 | – | 0.121 | – | 0.0897 | 0.095 | – | 0.0938 | 0.107 | 0.0738 | 0.104 | 0.0898 | 0.105 | 0.106 | –
MGESLFKGPRDYNPISSSICHLTNESDGHTTSLYGIGFGPFIITNKHLFRRNEGTLVVQSLHGVFKVKDTTTLQQHLVDGRDMIIIRMPKDFPPFPQKLKFREPQREERICLVTTNFQTKSMSSMVSDTSCTFPSGDGIFWKHWIQTKDGQCGSPLVSTRDGFIVGIHSASNFTNTNNYFTSVPKNFMELLTNQEAQQWVSGWRLNADSVLWGGHKVFMVKPEEPFQPVKEATQL [N53E] | 0.0909 | 0.0779 | 0.0265 | 0.119 | 0.0995 | 0.0736 | 0.13 | 0.141 | 0.148 | 0.105 | 0.105 | 0.0873 | 0.116 | – | 0.11 | – | – | 0.107 | 0.0805
MGESLFKGPRDYNPISSSICHLTNESDGHTTSLYGIGFGPFIITNKHLFRRNNDTLVVQSLHGVFKVKDTTTLQQHLVDGRDMIIIRMPKDFPPFPQKLKFREPQREERICLVTTNFQTKSMSSMVSDTSCTFPSGDGIFWKHWIQTKDGQCGSPLVSTRDGFIVGIHSASNFTNTNNYFTSVPKNFMELLTNQEAQQWVSGWRLNADSVLWGGHKVFMVKPEEPFQPVKEATQL [G54D] | 0.102 | 0.0693 | 0.109 | 0.0806 | 0.0527 | 0.0859 | – | – | 0.0592 | 0.0796 | 0.0694 | – | 0.0907 | 0.0745 | 0.0801 | 0.155 | – | 0.0739 | 0.0722
MGESLFKGPRDYNPISSSICHLTNESDGHTTSLYGIGFGPSIITNKHLFRRNNGTLVVQSLHGVFKVKDTTTLQQHLVDGRDMIIIRMPKDFPPFPQKLKFREPQREERICLVTTNFQTKSMSSMVSDTSCTFPSGDGIFWKHWIQTKDGQCGSPLVSTRDGFIVGIHSASNFTNTNNYFTSVPKNFMELLTNQEAQQWVSGWRLNADSVLWGGHKVFMVKPEEPFQPVKEATQL [F41S] | 0.0809 | 0.0694 | 0.0766 | 0.0954 | – | 0.0832 | 0.0766 | 0.0848 | 0.0848 | 0.0828 | 0.0816 | – | – | 0.0771 | 0.0499 | 0.0923 | 0.112 | 0.0797 | 0.0819
MGESLFKGPRDYNPISSSICHLTNESDGHTTSLYGIGFGPCIITNKHLFRRNNGTLVVQSLHGVFKVKDTTTLQQHLVDGRDMIIIRMPKDFPPFPQKLKFREPQREERICLVTTNFQTKSMSSMVSDTSCTFPSGDGIFWKHWIQTKDGQCGSPLVSTRDGFIVGIHSASNFTNTNNYFTSVPKNFMELLTNQEAQQWVSGWRLNADSVLWGGHKVFMVKPEEPFQPVKEATQL [F41C] | 0.106 | 0.0992 | 0.119 | – | 0.0887 | 0.0854 | 0.125 | – | – | – | 0.112 | 0.105 | 0.11 | 0.0971 | 0.106 | 0.128 | 0.108 | 0.106 | 0.108
MGESLFKGPRDYNPISSSICHLTNESDGHTTSLYGIGFGPRIITNKHLFRRNNGTLVVQSLHGVFKVKDTTTLQQHLVDGRDMIIIRMPKDFPPFPQKLKFREPQREERICLVTTNFQTKSMSSMVSDTSCTFPSGDGIFWKHWIQTKDGQCGSPLVSTRDGFIVGIHSASNFTNTNNYFTSVPKNFMELLTNQEAQQWVSGWRLNADSVLWGGHKVFMVKPEEPFQPVKEATQL [F41R] | 0.0417 | 0.0462 | – | 0.0627 | 0.0498 | – | 0.0495 | 0.0797 | 0.0549 | 0.0622 | 0.0458 | 0.0453 | – | 0.049 | 0.0516 | 0.0526 | – | 0.0509 | 0.0694
